Test results from PubChem BioAssay AID485344 (National Center for Advancing Translational Sciences (NCATS), 2010).
About 6,900 (2%) of roughly 340,000 compounds were called active. No stated cut-off is given here; in the data, active means inhibition above about 30%; inactive means below that, where a call was filed. The entries are a selection whose mix differs from that of the whole data set. Entries without a call were filed so in the source.

Biological target: D(2) dopamine receptor (Homo sapiens) (UniProt P14416)
Test: HTS Assay for Allosteric Antagonists of the Human D2 Dopamine Receptor: Primary Screen for Antagonists; further: 0% is about no effect
Conditions: HEK293 TREx D2 cells, calcium flux, dopamine EC80; at 10 µM; stronger effect = higher value
How it was run: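 Overnight-induced (tetracycline, 30 C) HEK293 T-REx cells carrying force-coupled D2 receive a no-wash calcium dye, then compound, then EC80 dopamine at 180 s; signals are read kinetically throughout.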

UniProt P14416, sequence (P14416 whole entry, looked up): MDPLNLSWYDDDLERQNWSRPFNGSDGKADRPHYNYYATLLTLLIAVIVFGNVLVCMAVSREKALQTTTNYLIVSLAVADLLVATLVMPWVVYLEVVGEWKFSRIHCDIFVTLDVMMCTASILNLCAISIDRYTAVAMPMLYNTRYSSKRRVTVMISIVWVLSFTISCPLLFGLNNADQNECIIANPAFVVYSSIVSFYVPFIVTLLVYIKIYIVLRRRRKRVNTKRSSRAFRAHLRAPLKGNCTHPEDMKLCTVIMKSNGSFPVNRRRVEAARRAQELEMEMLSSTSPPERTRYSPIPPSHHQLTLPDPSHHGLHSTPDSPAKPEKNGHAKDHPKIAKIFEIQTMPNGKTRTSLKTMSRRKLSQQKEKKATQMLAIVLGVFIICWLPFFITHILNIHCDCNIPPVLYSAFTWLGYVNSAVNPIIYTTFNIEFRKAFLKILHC

| SMILES | inhibition |
| --- | --- |
| Cc1ccc(CNC(=O)c2cc3ccc4cccnc4c3[nH]2)cc1 | 10.7% |
| Cc1ccc(NC(=O)Cn2cnc3c2c(=O)n(C)c(=O)n3C)cc1C | -19.4% |
| CCN(C(=O)Cn1c(=O)n(Cc2ccccc2)c(=O)c2c1c1cc(OC)ccc1n2C)c1ccccc1 | 0.526% |
| Cc1ccccc1CNC(=O)c1ccc2nc(C(C)C)oc2c1 | 8.04% |
| COc1cc(Cl)c(C)cc1NC(c1ccccc1)c1nnc(-c2ccccc2Cl)o1 (stereo not drawn) | 9.32% |
| COc1ccc(-c2noc(-c3ccc(NC4CCCC4)c([N+](=O)[O-])c3)n2)cc1OC | 10.9% |
| CCC(C)n1c(=N)c(C(=O)NC2CCCCC2)cc2c(=O)n3ccccc3nc21 (stereo not drawn) | -15.1% |
| COc1ccc(C2=Nc3ccc(OC(F)(F)F)cc3NC(c3cccnc3)=N2)cc1 | -14.5% |
| COc1ccc(CN2CCCC(CO)(Cc3ccc(F)cc3F)C2)cc1 (stereo not drawn) | active: 42.9% |
| Cc1ccc(C)c(N2CCN(S(=O)(=O)c3cn(C)c(C)n3)CC2)c1 | -18.5% |
| COc1cc(NC(=O)CSc2nc(-c3ccc(C(C)C)cc3)no2)cc(OC)c1 | -16.1% |
| COc1ccc(NC(=O)CSc2cn(CCNC(=O)c3c(F)cccc3F)c3ccccc23)cc1 | -11.7% |
| Cc1ccc(NC(=O)CSc2nc3ccc(NC(=O)CCc4ccccc4)cc3s2)cc1 | 6.05% |
| CCN1CCN(Cc2c(O)ccc3c(=O)c(Oc4ccccc4C(C)C)c(C(F)(F)F)oc23)CC1 | 23.4% |
| O=C(CN1CCN(c2ccccc2)CC1)Nc1ccc(-n2cnnn2)cc1 | active: 50.8% |
| CCCN1CCN(CCCNC(=O)Cn2nc(C)n3c(cc4c(OC)cccc43)c2=O)CC1 | 7.33% |
| CCCn1cc(S(=O)(=O)c2cc(C)ccc2C)c(=O)c2cc(F)c(N3CCN(CC)CC3)cc21 | -27.2% |
| CCOC(=O)c1c(S(=O)(=O)NCC(=O)NCc2ccccc2Cl)c(C)n(C)c1C | 0.946% |
| Cc1cccc(NC(=O)C2CCN(S(=O)(=O)c3ccc4c(c3)CCCN4C(=O)C3CCC3)CC2)c1 | -16.6% |
| COCCCn1c(=O)c2sccc2n2c(CCCC(=O)NC3CCC(C)CC3)nnc12 (stereo not drawn) | 4.29% |
| CCc1cc2c(SCC(=O)c3cccs3)ncnc2s1 | active: 33.5% |
| Cc1cccc(C)c1-n1ncc(C(=O)N2CCN(c3ncccn3)CC2)c1C1CCN(C(=O)OC(C)(C)C)CC1 | -1.42% |
| O=[N+]([O-])c1cccc(-c2ccc(C(=S)N3CCOCC3)o2)c1 | active: 61.5% |
| COc1ccc(CNC(=O)C2CCN(S(=O)(=O)c3ccc4c(c3)CCCN4C(C)=O)CC2)cc1 | 7.35% |

| SMILES | inhibition |
| --- | --- |
| COCc1cc(C)nc2sc3c(=O)n(-c4ccccc4C(F)(F)F)nnc3c12 | 1.3% |
| CCc1ccccc1NC(=O)c1sc(-n2nc(C)c(Cc3ccccc3)c2C)nc1C | 1.8% |
| Oc1ccc2ccccc2c1C=Nc1ccccc1-c1nc2ccccc2[nH]1 | active: 41.4% |
| Cc1ccc(C)c(CSc2nnc3[nH]c(=O)cc(-c4ccccc4)n23)c1 | 9.28% |
| O=C1C2CCCCN2C(=O)N1CCCCN1CCN(c2ccccc2Oc2ccccc2)CC1 (stereo not drawn) | active: 84.1% |
| CCCCCOC(=O)CSc1ncnc2sc3c(c12)CCC(C)C3 (stereo not drawn) | 9.3% |
| CCc1ccc(NC(=O)CC2C(=O)N(c3cccc(OC)c3)C(=O)N2C2CCCC2)cc1 (stereo not drawn) | -3.55% |
| Cc1ccc2c(c1)-c1ncc(C(=O)c3ccccc3O)cc1CO2 | 10.1% |
| Cc1cc(C)cc(NC(=O)CSc2nc(-c3ccccc3)c3cc(F)ccc3n2)c1 | -8.21% |
| Cc1ccc(C(=O)NC2=NC(c3ccc(C)cc3)CC(=O)N2)cc1 (stereo not drawn) | -10.6% |
| COc1ccc(-c2nc(SCC(=O)Nc3ccc4c(c3)OCCO4)c(-c3ccc(C)cc3)[nH]2)cc1OC | 23% |
| CC(C)NC(=O)c1nn(-c2ccccc2F)nc1CO | -1.69% |
| COc1ccc(NC(=O)CSc2ccc3nc(-c4ccccc4)cn3n2)cc1OC | 9.6% |
| Cc1ccccc1Nc1c(-c2ccc(N3CCOCC3)cc2)nc2ccccn12 | 16.7% |
| Cc1ccc(CNC(=O)CN2C(=O)COc3ccc(S(=O)(=O)Nc4ccccc4)cc32)cc1 | -3.83% |
| CC(C)(C)OC(=O)N1CCC(c2nnc(SCc3cccc(Cl)c3)o2)CC1 | 5.91% |
| Cc1ccc2nc3sc(C(=O)NCCCN(C)c4ccccc4)cc3cc2c1 | 7.23% |
| COc1ccccc1CNC(=O)CCC1N=C2c3ccccc3N=C(SCc3ccc(C)cc3C)N2C1=O (stereo not drawn) | -2.28% |
| COc1ccc(NC(=O)CN(c2cc(C)cc(C)c2)S(=O)(=O)c2c(C)noc2C)cc1Cl | -1.87% |
| Fc1cccc(-n2ncc3c2ncn2nc(Cc4ccccc4)nc32)c1 | 7.81% |
| O=C(Nc1ccc(Oc2ccccc2)cc1)C1CCN(S(=O)(=O)c2ccc(Cl)cc2)CC1 | 0.651% |
| CCOc1ccc(CCNC(=O)c2ccc3c(c2)c(C)c(C)n3Cc2ccccc2)cc1OCC | 3.29% |
| Cc1ccc(S(=O)(=O)N2CCOCC2)cc1NC(=O)CNCc1cccnc1 | active: 59.7% |
| CC(=O)N1CCN(C(=O)c2ccc(Cl)c(S(=O)(=O)N3CCCCCC3)c2)CC1 | active: 31.9% |

| SMILES | inhibition |
| --- | --- |
| COc1ccccc1NC(=O)CCCc1nnc2n(C)c(=O)c3sccc3n12 | -11.3% |
| CCOC(=O)c1cc(S(=O)(=O)NCc2ccc(C)cc2)[nH]n1 | -5.92% |
| COc1ccc(CCN2C(=O)c3[nH]nc(-c4ccccc4O)c3C2c2ccc(OC)cc2)cc1 (stereo not drawn) | 3.74% |
| O=S(=O)(c1ccc(Cl)cc1)c1nc(-c2ccco2)oc1SCc1ccc(F)cc1 | 0.694% |
| CCOc1ccc(NC(=O)CN(C)Cc2cc(=O)n3c(-c4ccccc4)csc3n2)cc1OCC | active: 40.6% |
| Cc1ccc(N=Cc2sc(O)c3ccccc23)c(C)c1 | active: 58.1% |
| Cc1ccc2c(CC(=O)Nc3c(C(=O)c4ccc(C)c(F)c4)oc4ccccc34)coc2c1 | 13.3% |
| CCOc1ccc(NC(=O)c2cnc3ccccn3c2=O)cc1 | 3.1% |
| COc1cc(C2CC(=O)Nc3c2c(C)nn3-c2nncc(-c3ccc(C)cc3)n2)cc(OC)c1OC (stereo not drawn) | -11.7% |
| CC(=O)c1ccc(NC(=O)c2cnn(-c3cccc(F)c3)c2-n2cccc2)cc1 | -3.39% |
| COc1ccc(S(=O)(=O)c2c(O)c3ccc(C(=O)NCc4ccc(F)cc4)cc3[nH]c2=O)cc1 | -4.47% |
| Cc1ccc(CNC(=O)c2cc(C)nc3c2c(C)nn3-c2ccc(C)cc2)cc1 | 2.55% |
| CSc1ccc(CCNC(=O)CCn2c(=O)c3cccn3c3ccc(F)cc32)cc1 | -6.08% |
| CCOC(=O)c1c(NC(=O)c2cc3ccccc3c(=O)o2)sc2c1CCC(C)C2 (stereo not drawn) | -3.11% |
| Cc1ccc(SCC(=O)Nc2ccc3oc(-c4ccccc4C)nc3c2)cc1 | 10.9% |
| COc1ccc(-n2c(=O)c3ccccc3n(CC(=O)Nc3ccccc3OC)c2=O)cc1 | 0.82% |
| COc1cc(OC)cc(C(=O)Nc2cc3c(cc2N2CCCC2)n(C)c(=O)c(=O)n3C)c1 | -3.98% |
| Cc1ccc(S(=O)(=O)n2nc(-c3ccccc3)nc2NCc2ccc(Cl)cc2)cc1 | 8.7% |
| Cc1ccc([N+](=O)[O-])c(OCCN2CCC(Cc3ccccc3)CC2)c1 | active: 68.3% |
| O=C(CSc1nc2c([nH]c3ccccc32)c(=O)n1-c1ccccc1)N1CCc2ccccc21 | -25.1% |
| O=C1CC(c2nc(-c3ccc(Cl)cc3)no2)CN1c1ccc2c(c1)OCCO2 (stereo not drawn) | 23.8% |
| COc1ccc(C2C(=O)N(C3CCCCCC3)CC(=O)N2Cc2ccc(C)cc2)cc1 (stereo not drawn) | -17.7% |
| CCc1ccc(NC(=O)[C@H](Cc2ccccc2)N2Cc3ccccc3C2=O)cc1 | 4.33% |
| CCOc1ccc(S(=O)(=O)c2c(C(=O)c3ccc(CC)cc3)cnc3ccc(C)cc23)cc1 | 5% |

| SMILES | inhibition |
| --- | --- |
| CN(C)CCNC(=O)C1CCN(Cc2cc3ccccc3n2Cc2ccccc2)CC1 | -17.3% |
| COc1cc(NC(=O)CCc2c(C)nn(-c3ccc4nnc(C)n4n3)c2C)cc(OC)c1OC | 7.1% |
| CC(C)C[C@H]1C(=O)N2CCC[C@H]2[C@]2(O)O[C@](NC(=O)[C@@H]3C=C4c5cccc6[nH]c(Br)c(c56)CC4N(C)C3)(C(C)C)C(=O)N12 (stereo partly drawn) | active: 94.1% |
| CCCN(CCC)CCCNC(=O)c1cc2c(-c3ccc(OC)c(OC)c3)nn(C)c2s1 | 13.2% |
| COc1ccccc1C(=O)NCC(c1cccnc1)N1CCc2ccccc2C1 (stereo not drawn) | -4.6% |
| CCOC(=O)c1ccc(NC(=O)CSc2ccc3ccccc3n2)cc1 | -9.13% |
| Cc1ccccc1-c1ccc(/C=C2/SC(N3CCOCC3)=NC2=O)o1 | active: 82.6% |
| Cc1cccc(N2CCN(C(=O)CN3C(=O)CSc4c3c(C)nn4-c3ccccc3)CC2)c1C | 12% |
| CCCOC(=O)c1c(NC(=O)C(C)Sc2nc(-c3ccccc3)cc(C(F)(F)F)n2)sc(C(=O)N(C)C)c1C (stereo not drawn) | -5.02% |
| O=C1C(c2ccc(F)cc2)N(CCc2ccc(Cl)cc2)C(=O)CN1C1CCCCCC1 (stereo not drawn) | 18.5% |
| COc1cc(NC(=O)CCC(=O)Nc2ccc3nc(N4CCOCC4)cc(C)c3c2)cc(OC)c1OC | active: 30.9% |
| O=C(NCc1cccc(Br)c1)c1cnn(-c2ccc(F)cc2)c1-n1cccc1 | 1.53% |
| CC(=O)c1ccc(NC(=O)c2cc(-c3ccc(C)s3)nc3ccccc23)cc1 | -1.84% |
| CCC(C)NC(=O)Cn1c(=O)n(CCCCCC(=O)NCc2ccccc2Cl)c(=O)c2sccc21 (stereo not drawn) | 7.36% |
| O=C(CSc1nccn1-c1ccc(Cl)cc1)Nc1ccc(Cl)c(Cl)c1 | 4.38% |
| COc1cc(NC(=O)N2c3ccccc3Sc3ccccc32)cc(OC)c1 | -7.7% |
| CCOC(=O)N1CCc2c(sc3c2c(=O)n(CCc2ccccc2)c(=O)n3CC(=O)Nc2ccc(C)cc2)C1 | 12.9% |
| COCC1CCCN(Cc2cn(-c3ccccc3F)nc2-c2cc(C)sc2C)C1 (stereo not drawn) | active: 41% |
| CCc1cccc(NC(=O)CCNS(=O)(=O)c2cccc3nonc23)c1 | 17.2% |
| COc1ccccc1NC(=O)C1=C(C)Nc2nnnn2C1c1ccc(C(F)(F)F)cc1 (stereo not drawn) | -14.5% |
| Cc1c(Cl)cccc1-n1ncc(C(=O)Nc2ccc(Br)cc2F)c1C1CCNCC1 | 10.9% |
